Reference: the supplement of paper PMC3334620
In all, about 33,000 sequences were measured (“E-score (-0.5 to 0.5)”: median about -0.012, highest 2% from about 0.27 on). This is one part of the list.

molecular target: T1, Vhr1 (UniProt P40522); assay: PBM E-score (8-mer binding enrichment) (E-score (-0.5 to 0.5)); higher = stronger / more preferred TF binding; most listed sequences are background and not binding sites; conditions: protein concentration: 200 nM; construct: GST-full length
T1 sequence: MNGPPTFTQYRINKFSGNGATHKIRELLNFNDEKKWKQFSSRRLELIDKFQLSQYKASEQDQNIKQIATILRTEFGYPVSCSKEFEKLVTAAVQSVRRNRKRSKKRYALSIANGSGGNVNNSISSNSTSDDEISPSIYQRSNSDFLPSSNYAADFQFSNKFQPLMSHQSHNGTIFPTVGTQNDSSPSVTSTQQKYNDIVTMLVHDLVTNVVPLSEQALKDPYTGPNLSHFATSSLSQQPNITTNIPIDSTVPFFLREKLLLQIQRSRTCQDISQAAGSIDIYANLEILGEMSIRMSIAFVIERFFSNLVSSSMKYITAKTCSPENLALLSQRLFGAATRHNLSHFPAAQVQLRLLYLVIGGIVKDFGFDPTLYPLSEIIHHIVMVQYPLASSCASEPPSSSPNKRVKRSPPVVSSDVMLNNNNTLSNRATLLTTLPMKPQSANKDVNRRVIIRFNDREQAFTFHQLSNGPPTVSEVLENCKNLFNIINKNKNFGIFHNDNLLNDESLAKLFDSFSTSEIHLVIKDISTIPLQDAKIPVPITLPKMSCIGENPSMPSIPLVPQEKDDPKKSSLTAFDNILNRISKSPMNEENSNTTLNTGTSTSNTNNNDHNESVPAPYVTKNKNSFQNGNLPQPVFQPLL
Experimental: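 Universal 'all 10-mer' protein binding microarrays (Agilent AMADID 015681) probed with GST-tagged S. cerevisiae TFs (full-length or DBD) made by in vitro transcription/translation (PURExpress), about 100-200 nM. Bound TF was detected with fluorescent anti-GST. Each ungapped 8-mer (which stands for itself and its reverse complement) is scored by the PBM enrichment score (E-score), a modified Wilcoxon-Mann-Whitney statistic from -0.5 to +0.5, computed with the Universal PBM Analysis Suite. Scale: above 0.35 generally sequence-specific binding.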

Sequence | PBM E-score
CGCAGACA | 0.105
CATAGTGA | 0.101
CATCCCAG | -0.0387
ATATTCCA | 0.138
CATATACA | 0.229
CTAGGTAC | -0.106
GGATGCCC | -0.308
ACCGAGCT | 0.0466
GCGCTGAC | 0.125
CTGCACCC | 0.0202
ATGACGGC | 0.0343
CGAGGAAA | -0.168
CTATTTTC | 0.0035
AGATATGC | 0.103
AAGCGTCC | -0.146
CAGCAGAG | 0.065
GCTGGCCC | -0.114
CTTTACAC | 0.0138
AAATCCTC | -0.00246
ATAACTCC | -0.0845
TCGTTGAA | -0.0916
AAGGTACA | -0.057
AAAAGTCA | 0.0475
CGCTAAAG | -0.166
ACTTGTGC | -0.0632

Sequence | PBM E-score
CAAAGAGA | -0.299
CATTATCG | -0.0632
ATCGGTCA | -0.0294
GACGGTTA | 0.0723
GAATAATA | 0.0251
ACAAGGAT | -0.00316
CTACGTAC | 0.0113
ACGGAACC | -0.0225
CTGGTGAA | -0.0534
CGTCCCCA | -0.129
GGATTTGA | -0.0695
CTCTGCAC | -0.101
AAAGCACT | 0.0418
AATACGCC | -0.00077
CCGCTATC | 0.071
AAAGCGAC | 0.128
ATAAAAAG | 0.0182
GGGAATAA | -0.0372
CCATCGCC | 0.0886
CACGGTGC | 0.0709
ACGACCCG | 0.00714
ACGGGGGA | 0.0431
CCTATACA | 0.134
ACTTAATC | -0.0768
ACGATTGC | 0.0187

Sequence | PBM E-score
GTCACCTA | 0.0565
GTCAGTCA | 0.267
CTGTATAC | -0.0296
GTACAGCA | -0.084
ATACACAT | 0.176
ACAGATAC | 0.087
AGGTTTTC | -0.164
AGCCTAGG | -0.299
ACCTTAAA | -0.214
AATTCGGT | 0.0216
GGCATCAC | -0.0483
GGTATCAC | 0.121
ACATACCG | 0.145
AGCATCAT | -0.0183
TACGATAA | 0.0471
CAAATTTC | -0.248
AACTCGCT | 0.0478
AGCTCGCA | -0.0374
GACCACTC | 0.169
GTACCTCA | 0.0679
CTAGGCAC | -0.102
GCCTGATA | -0.156
AAAGGAAG | -0.0552
CTCGCGAA | -0.261
TACTCAGA | 0.152

Sequence | PBM E-score
ATTAGAGC | 0.138
ACATCGAT | 0.133
ACTAAGGA | -0.0654
CTGACTGC | 0.298
GTGGAGGA | 0.0858
GACACGCC | 0.122
AGCTGGTA | -0.0643
CTCAGTCA | 0.362
GGAAATTA | -0.122
GAGAGCCC | -0.25
ACAGTCTG | -0.0561
GAGCCAGA | 0.128
TCGCCCGA | -0.00197
CGGATAGC | -0.122
CCGTCAAA | -0.343
GATTTGAA | -0.132
TCGGCCAA | -0.101
CGAATGGC | 0.124
CAGGGACG | -0.108
CAGCCCAA | 0.0901
CCCACTGC | 0.157
GGCCACGA | 0.0718
TAGCTCCA | -0.0103
AGTGGCGG | 0.134
CGAACCGA | 0.0202

Sequence | PBM E-score
TCGTGCCA | 0.0339
GTAACGAC | 0.0561
CATTCTTC | -0.104
TACCAAAA | -0.223
CACTAGCA | -0.0471
AGATACGA | 0.13
ATGGGCTG | 0.198
AATCACCA | 0.33
ACAGGCCC | -0.193
AACTAAAT | -0.0313
CCACTTTC | -0.129
CGGGATCC | 0.0185
CCGTGAAA | -0.0126
CTTTACTA | 0.11
AACTTGCA | -0.0527
GCCCCTGA | 0.16
ACGGTTTG | 0.0802
GTGAGCCA | 0.355
ATAAATAA | 0.00317
CAATGGAA | 0.0591
CCTCTTCA | -0.0067
ATAAGTAA | 0.00659
CTCTTAGA | -0.151
TCGTCACA | 0.0377
AGAAAAAC | -0.319

Sequence | PBM E-score
CCGGTCCC | -0.00652
ATTACGAG | 0.127
AATTAGCC | -0.0619
AGATTATG | 0.162
AGCGTGGG | -0.136
ACATCATA | 0.266
CCATCCCC | -0.00278
CACATGCG | 0.124
ACCCGTGG | -0.0504
ATCGATAA | 0.0524
CAATATGG | 0.114
AACCTACG | -0.169
GTTTTGGA | -0.0253
CTCGACAA | -0.0758
ACACGGAA | -0.0284
CAGAGCCA | -0.0622
ATCCTTAC | 0.068
ATAGATGA | 0.042
CGGGCAAA | -0.0237
AGGCTTTA | -0.229
GACGAAAA | -0.0135
AGTTAGTA | 0.137
ACTGCTAC | -0.114
AGCCGGCT | -0.0587
AGGATCTG | -0.0393

Sequence | PBM E-score
CTTAGCCC | -0.162
AGCATCGG | 0.00761
GGTTTCCA | -0.164
CGTTAGCA | 0.00713
CGTTCGTA | 0.135
ACGTACCG | -0.0333
GAATGATC | 0.128
AGGTACCT | -0.116
CCTGAATC | 0.0923
TATGGAGA | -0.137
GCTAAGAA | -0.0747
ACCATACA | 0.0461
CGTAAGAG | -0.136
GTTGTTAA | 0.0801
CTTAGCAC | -0.0691
GCTATAAA | -0.123
CAAGCCGG | 0.0801
TCGACTCA | 0.349
ACGCCTAT | -0.142
AAGCTTTC | -0.195
CGCGACCG | 0.17
GAGAGCGC | -0.202
ACGGGCGG | 0.013
TCAGCAAA | -0.0743
ATTTCCTA | 0.0418

Sequence | PBM E-score
AAGTTTCT | -0.113
ATCCGTCA | -0.0404
ATGTTACA | 0.17
CCAGATTA | 0.00015
ACTAGTTC | -0.0876
ACCCCTTG | -0.212
ATATACAG | 0.103
AAAAGTAC | -0.155
GGTTAGTA | 0.108
GCATCGTA | 0.0567
AGTTCGGG | 0.0123
GCAGTCTA | -0.0301
ATCTGCAG | 0.0125
GCAGCTAA | -0.106
GAAATTAC | -0.0807
CGCAGTAA | -0.104
GCGAACGC | -0.042
CAGCTTGC | -0.129
CACTGTTC | -0.0267
TAAGTTCA | -0.156
CTAGCAGC | -0.0636
GGCAGGGA | 0.0297
ACGCGACC | 0.0419
CAATCGCG | 0.1
TAACCCAA | 0.095

Sequence | PBM E-score
CGTCGAGC | -0.0366
TCATGGCA | 0.0755
CCCAATTC | 0.0325
AGTAAGGA | -0.11
ATGACTTC | 0.341
CGCAAGCC | 0.17
ACTTTCCT | -0.157
GACGGCAA | 0.0613
GTGACTTA | 0.259
ACGCCTGA | -0.0743
CATTTGGC | -0.0816
AAGGTAAG | -0.0663
TATGCGCA | -0.00407
GGCAAAGA | -0.0131
ACACGTCG | -0.155
GAGTGGCC | -0.0478
AATGGTTC | 0.212
AGTGCGTG | 0.177
GACCGAAC | 0.0587
